Data taken from PubChem BioAssay AID1956 (SRMLSC, 2009).
The list shows a part of the results. These are further read-outs of the screen, such as a control signal, another cell line or another target. No call is given for them.

Test: compounds boosting herpes simplex virus growth – fold increase, host cell viability (AID 1956); further: tested in PC3 cells
Settings: HSV replication augmentation in cells; fold increase: measured here: primary screen fold increase 10 uM, at 10 µM, stronger effect = higher value; viability: measured here: host cell viability series, at 25 µM, stronger effect = lower value

Row | Compound | fold increase | viability
1 | O=C(O)c1cc(-c2ccc(/C=N/Nc3ccc([N+](=O)[O-])cn3)o2)ccc1Cl | 1.33 | 97.5%
2 | COc1ccc(-c2[nH]ncc2CNCC(C)(C)N2CCOCC2)cc1F | 1.6 | 94.8%
3 | COc1ccc(C)cc1-n1c(SCC(=O)Nc2cc(C)on2)nc2sc(C)c(C)c2c1=O | 1.22 | 
4 | Cc1cccc2nc3c(nc12)-c1ccccc1C3=O | 1.4 | 92.7%
5 | Cc1cc(C)c2cc(C#N)c(SCC(=O)Nc3ccc4c(c3)OCO4)nc2c1 | 1.53 | 96.6%
6 | CC(=O)c1sc(C(C)(C)C)cc1NC(=O)CCC(=O)O | 1.36 | 102%
7 | CC(C)(C)C(=O)NCCn1ccc2ccccc21 | 1.48 | 95.8%
8 | Cc1ccc2cc(NC(=O)Cc3ccccc3)ccc2n1 | 1.33 | 107%
9 | C=CCc1cccc(/C=C/c2cc(=O)c3ccccc3[nH]2)c1O | 1.41 | 83.6%
10 | CCN1CCN(C2=CC3=CC(=C(C#N)C#N)CCC3CC2)CC1 (stereo not given) | 9.09 | 95.9%
11 | Nc1ccc(-n2c(N)c(C(=O)NCc3ccc4c(c3)OCO4)c3nc4ccccc4nc32)cc1 | 1.23 | 
12 | N#C/C(=C\c1ccc(N2CCOCC2)o1)c1nc2ccccc2[nH]1 | 13.9 | 83.9%
13 | Nc1ccc(N2CCN(C(=O)c3cccs3)CC2)cc1 | 1.25 | 
14 | CC[n+]1c(/C=C2\Sc3ccccc3N2C)ccc2cccc(C)c21 | 8.43 | 16.6%
15 | Cc1ccc(CSc2nnc(CS(=O)Cc3ccc(Cl)cc3Cl)n2C)cc1 (stereo not given) | 1.44 | 87.3%
16 | Cc1c(Br)c([N+](=O)[O-])nn1C(C)C(=O)Nc1nccs1 (stereo not given) | 1.37 | 89.1%
17 | N#C/C(=C\c1ccc(N2CCCCC2)o1)C(N)=O | 2.39 | 
18 | Cc1cc(/C=C2\SC(=S)N(Cc3ccco3)C2=O)c(C)n1-c1ccccc1 | 1.65 | 97%
19 | S=C(Nc1ccc2nc(-c3ccccn3)c(-c3ccccn3)nc2c1)N1CCCCC1 | 1.46 | 84.2%
20 | CCCCN(C(=O)CC(c1ccccc1)c1ccccc1)c1c(N)n(CCC)c(=O)[nH]c1=O | 1.32 | 
21 | CC1=CC(=NOC(=O)/C=C/c2ccccc2)C=C(C)C1=O | 1.44 | 94.5%
22 | O=C(O)Cc1sc(Nc2ccccc2)nc1-c1cccs1 | 1.57 | 101%
23 | NC(=O)c1sc(=S)n2c1[nH]c(=O)c1sccc12 | 1.96 | 104%
24 | CCOc1ccc2[nH]c(=O)c(CN(CCO)C(=O)c3ccc(Br)cc3)cc2c1 | 1.18 | 
25 | O=C(CSc1ncccn1)Nc1ncc(C(F)(F)F)cc1Cl | 1.32 | 

Row | Compound | fold increase | viability
26 | Cc1ccc(NC(=S)NNC(=S)NCc2ccccc2)cc1 | 1.21 | 
27 | COc1ccc(C2NC3=C(CCCC3)C(C#N)(C#N)C2(C#N)C#N)cc1 (stereo not given) | 1.43 | 88.3%
28 | CCCN1CC=C2C(C#N)=C(N)C(C#N)(C#N)C(c3cccc(OC)c3OC)C2C1 (stereo not given) | 1.32 | 100%
29 | O=C(CCc1ccccc1)NC(NC(=S)Nc1ccc(Cl)cc1)C(Cl)(Cl)Cl (stereo not given) | 1.04 | 
30 | COC(=O)Nc1sc2c(c1C(=O)NC1CC1)CCCCCC2 | 1.32 | 101%
31 | Cc1ccc(N=Cc2c(O)n(-c3nccs3)c(=O)c3ccccc23)cc1 | 1.37 | 
32 | CCOC(=O)C1=C(CSc2nc(C)ccc2C#N)OC(N)=C(C#N)C1c1cccc(OC)c1OC (stereo not given) | 1.75 | 94.8%
33 | COc1ccc(CNC(=O)c2cccnc2Sc2ccc(Cl)cc2)cc1 | 1.37 | 96.3%
34 | O=C(Nc1ccc(F)cc1)C(Cc1ccccc1)n1cccc1 (stereo not given) | 1.32 | 
35 | CCCCCCNC(=O)C(C#N)c1nc2ccccc2nc1N1CCOCC1 (stereo not given) | 1.79 | 91.3%
36 | CN1/C(=C\C=Nc2cc(S(=O)(=O)N3CCOCC3)ccc2N2CCOCC2)C(C)(C)c2ccccc21 | 1.5 | 97.8%
37 | CCn1c(=O)c(C(=O)CN2CCc3ccccc32)c(N)n(Cc2ccccc2)c1=O | 1.88 | 90.4%
38 | CC(=Nc1ccc(Br)cc1)c1sc2ccccc2c1O | 3.01 | 101%
39 | CCN(CC)c1ccc2c(Cl)c(Br)c(=O)oc2c1 | 2.87 | 43.9%
40 | CC1=C(C#N)C(=O)N(C2CCS(=O)(=O)C2)C(=O)/C1=C\c1ccc(C)o1 (stereo not given) | 2.88 | 93.3%
41 | CCC(CO)[n+]1c(C)cc(/C=C2\Sc3ccccc3N2Cc2ccccc2)cc1C (stereo not given) | 2.81 | 31.3%
42 | COc1cc(/C=C2/SC(=S)N(CC(=O)O)C2=O)ccc1OC(=O)c1cccs1 | 3.2 | 90.5%
43 | COc1ccc2nc(SCC(C)=O)c(C#N)cc2c1 | 1.57 | 
44 | CCN1CCN(Cc2c(O)ccc3c2O/C(=C\C=C\c2ccccc2)C3=O)CC1 | 2.03 | 
45 | O=C(Nc1ccncc1)c1ccccc1[N+](=O)[O-] | 1.5 | 
46 | CC(C)C(=O)NC(c1ccco1)c1ccc2cccnc2c1O (stereo not given) | 1.72 | 
47 | O=C1CC(/C=C/c2ccccn2)=Nc2ccccc2N1 | 1.33 | 44.8%
48 | Cc1ccc(-c2n[nH]c(=S)n2/N=C/C=C/c2ccccc2[N+](=O)[O-])cc1 | 1.37 | 
49 | C=CCNC(=O)/C(C#N)=C\c1cc(Cl)c(O)c(OCC)c1 | 1.5 | 96.7%
50 | O=C(Nc1ccccc1C(=O)Nc1ccccc1C(=O)NCc1ccco1)c1ccco1 | 1.33 | 78.9%

Row | Compound | fold increase | viability
51 | Cc1ccc(Cn2cc(/C=N/Nc3ccc([N+](=O)[O-])cn3)c3ccccc32)cc1 | 1.43 | 
52 | CC(NC(=O)c1ccccc1Br)c1ccc2c(c1)CCCC2 (stereo not given) | 1.41 | 98%
53 | O=C(Nc1nc2c(cc3c4c(cccc42)CC3)s1)c1ccccc1Cl | 2.28 | 92.6%
54 | Cc1c(C(=O)N2c3ccccc3Sc3ccccc32)cccc1[N+](=O)[O-] | 1.32 | 
55 | O=C(c1ccccc1)C(Cn1cncn1)C(Sc1ccccc1)c1ccccc1 (stereo not given) | 1.14 | 
56 | Cc1ccccc1CNS(=O)(=O)c1ccc2c(c1)OCCO2 | 1.37 | 90.8%
57 | CC(C)(C)C1=NN(c2ccc([N+](=O)[O-])cc2)C(c2ccccc2)C1 (stereo not given) | 1.32 | 
58 | CC1=NN(c2nc(-c3ccc(Cl)cc3)cs2)C(=O)C1 | 1.37 | 100%
59 | COc1ccccc1N1C(=O)C2ON(c3ccccc3)C(c3ccc(N(C)C)cc3)C2C1=O (stereo not given) | 1.4 | 105%
60 | CN(CCC#N)c1ccc(/C=C(\C#N)c2ccccn2)cc1 | 4.39 | 83.4%
61 | O=C(NNC1=C(C(=O)C(F)(F)F)CCC1)c1cccc(Cl)c1 | 2.03 | 
62 | Cc1cc2nc3c(=O)n(CCc4ccccc4)c(=O)[nH]c3nc2cc1N | 9.63 | 89.2%
63 | CC(=O)Oc1c(C)cc(O)c2ccccc12 | 3.26 | 69.3%
64 | O=C1c2ccccc2C(=O)C12OC(c1ccccc1)C1(C(=O)c3ccccc3C1=O)C2c1cccc([N+](=O)[O-])c1 (stereo not given) | 1.35 | 92.9%
65 | O=C(O)c1cc(Cl)ccc1-c1ccc(/C=C/c2cc(C(F)(F)F)[nH]c(=O)n2)o1 | 1.35 | 94.8%
66 | Nc1nnnn1CC(=O)OCc1cccc(Br)c1 | 1.33 | 93.9%
67 | CC1CCCN(c2c([N+](=O)[O-])c(=O)oc3ccccc23)C1 (stereo not given) | 1.32 | 
68 | CCOc1ccc(C2C=C(c3ccc(F)cc3)Nc3ncnn32)cc1 (stereo not given) | 1.19 | 93.7%
69 | CS(=O)(=O)N1CC2CCCN2c2cc(C(F)(F)F)ccc21 (stereo not given) | 1.42 | 88%
70 | Cc1ccc(S(=O)(=O)NCC(=O)NCC(=O)OCc2c(F)cccc2Cl)cc1 | 1.43 | 91%
71 | Cc1cc2nc3c(=O)n(Cc4ccccc4)c(=O)[nH]c3nc2cc1N | 8.18 | 101%
72 | CCOC(=O)c1cc2c(nc1NC(=S)Nc1ccccc1)CC(C)(CC)OC2 (stereo not given) | 1.36 | 93.2%
73 | CC(=Nc1ccc(O)cc1)c1sc2ccccc2c1O | 1.81 | 86.4%
74 | CCOC(=O)C1=C(O)/C(=C/c2cc(OC)c(O)c(OC)c2)SC1=Nc1ccc(OC)cc1 | 1.4 | 105%
75 | CCN1C(=O)/C(=C/c2ccc(N3CCCC3)cc2)NC1=S | 3.77 | 

Row | Compound | fold increase | viability
76 | COc1cc([N+](=O)[O-])ccc1NC(=O)CCCOc1cccc(C)c1C | 1.5 | 92.8%
77 | Cc1nc2ccccc2c2oc(C(=O)N3CCc4ccccc4C3)cc12 | 1.37 | 77.2%
78 | CN(C)c1ccc2c3c(cccc13)C(=O)N(c1ccccc1)C2=O | 3.42 | 92.6%
79 | Oc1cccc(Nc2nc(O)c(/C=C3\C=Nc4ccccc43)s2)c1 | 1.66 | 79.3%
80 | O=C1CCCC2=C1C(c1ccccc1)NC(=S)N2 (stereo not given) | 1.33 | 96%
81 | COc1ccc(C(CC(=O)O)NC(=O)COc2ccccc2)cc1OC (stereo not given) | 1.32 | 100%
82 | CC(=O)/C(C#N)=C1\NC(=O)C(Cc2ccc(C)c(C)c2)S1 (stereo not given) | 1.77 | 82.4%
83 | Cc1cccc(NN=C2c3ccccc3-c3ccccc32)c1 | 1.36 | 93.3%
84 | CN1CCS/C1=C\C=C1/SC(=S)N(CC(=O)O)C1=O | 2.44 | 88.1%
85 | CCN(CC)c1ccc2c(c1)OC(N)=C(C#N)C2c1cccnc1 (stereo not given) | 2.58 | 40.4%
86 | CC(C)(C(=O)c1ccccc1)/[N+]([O-])=C/c1ccccc1F | 1.35 | 93%
87 | CC(NC(=O)COc1ccc([N+](=O)[O-])cc1)c1ccccc1 (stereo not given) | 1.38 | 94.2%
88 | COc1ccc(CCNc2nc(-c3sc(N)nc3C)cs2)cc1OC | 1.24 | 
89 | O=C(NCc1ccco1)c1nc2c(nnn2Cc2cccc(Cl)c2)c(=O)[nH]1 | 1.37 | 112%
90 | CCc1cccc(CC)c1-n1c(-c2cccnc2)n[nH]c1=S | 1.32 | 
91 | CC(=O)c1c(C)n(CCO)c2ccc(O)cc12 | 1.35 | 89.2%
92 | N#Cc1c(NC(=O)c2ccncc2)sc2c1CCC2 | 1.33 | 92.5%
93 | O=c1c(O)c(-c2cccs2)oc2ccc(Cl)cc12 | 7.26 | 
94 | CSc1nsc(/C=C/Nc2ccc(Cl)cc2)c1C#N | 1.88 | 89.4%
95 | O=C(/C=C/Nc1ccc(F)cc1F)c1cccs1 | 1.34 | 94%
96 | Cc1cc(C)n2nc(C(=O)NC(c3ccccc3)c3ccccc3)nc2n1 | 1.36 | 92.5%
97 | COc1ccc(C2CC(c3ccccc3)=NN2C(=O)COC(=O)c2cccnc2)cc1 (stereo not given) | 1.38 | 103%
98 | CC(=O)c1cc(NC(=O)c2cccc(C(F)(F)F)c2)c(=O)oc1/C=C/N(C)C | 1.51 | 93.4%
